Assay results from the BET-seq Pho4 binding data (Le et al. 2018).
The other results are listed elsewhere or left out. Values were computed here from the reads of four pooled replicates and scatter widely.

molecular target: T1, Pho4 (S. cerevisiae) (UniProt P07270); test: relative binding free energy (BET-seq); higher = weaker binding; conditions: reference: library average
T1 sequence: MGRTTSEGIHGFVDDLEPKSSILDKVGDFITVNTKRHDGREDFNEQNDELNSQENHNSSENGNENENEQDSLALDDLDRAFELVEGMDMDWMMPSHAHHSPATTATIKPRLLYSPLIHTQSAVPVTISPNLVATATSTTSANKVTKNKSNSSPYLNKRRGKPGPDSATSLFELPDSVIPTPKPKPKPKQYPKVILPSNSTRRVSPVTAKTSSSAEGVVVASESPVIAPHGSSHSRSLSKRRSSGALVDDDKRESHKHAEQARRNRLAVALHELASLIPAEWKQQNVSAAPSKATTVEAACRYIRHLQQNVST

Sequence	relative binding free energy [kcal/mol]
AGTTCCACGTGCAGTG	0.18
TCTGACACGTGTTGGG	0.09
GGAGACACGTGGAGTT	0.17
TTAAGCACGTGGGGCG	-0.14
AAGGACACGTGTGTGT	0
TAGATCACGTGATATG	0.23
TAGTTCACGTGTTTCT	0.39
TTAGTCACGTGTGGTC	0.11
AAGGGCACGTGTGCTA	-0.04
GAGGGCACGTGATGAG	0.17
GGGTGCACGTGATCAG	0.15
TGACACACGTGGCGTG	0
TCAATCACGTGCGTGT	0.13
AGATGCACGTGCTTGT	-0.15
TTCGCCACGTGTGTTA	0.02
TGAGACACGTGCAGTT	0.14
TGATGCACGTGGGTAG	-0.19
GAGGTCACGTGGTTTG	0.13
CATGGCACGTGGAGGC	0.04
GTATTCACGTGTAGGT	0.16
ATCGACACGTGGTGGG	-0.1
TTAGTCACGTGAATGG	0.26
GTTTTCACGTGTGTTC	0.38
GGGCGCACGTGGGTGG	-0.13
TCTGGCACGTGGTTCT	-0.15
AGGTTCACGTGCGGGC	0.33

Sequence	relative binding free energy [kcal/mol]
TATTTCACGTGTCATG	0.18
GTAGGCACGTGCAATG	-0.07
GTTAGCACGTGTGCTA	-0.05
ATTATCACGTGCTGGG	0.15
GTTATCACGTGAAATT	0.25
CGTGGCACGTGGTATG	-0.35
TTGGTCACGTGGGTAG	-0.04
AGGTACACGTGTTATA	-0.05
AAAGTCACGTGGGCGG	-0.02
ATTTTCACGTGTTGGA	0.24
GTTGTCACGTGCGGTC	0.02
ATCGACACGTGTTAGG	0.02
AATTTCACGTGCAGGT	0.24
GATGGCACGTGCGTCG	-0.05
GAGGTCACGTGGGAAG	0.16
CGATTCACGTGCGGGT	0.09
ATCGGCACGTGGAGGA	-0.09
GTTGGCACGTGCGTTA	-0.12
CAGTTCACGTGGGCGT	0.16
GTGTGCACGTGGACTA	-0.05
GTGGTCACGTGCTGTT	0.03
CTTGGCACGTGTTGTT	0.02
ATTAGCACGTGAGTGA	0.13
CGCGTCACGTGAGTTG	0.21
TGCGGCACGTGGTACG	-0.31
GGGGACACGTGTAGGG	-0.06

Sequence	relative binding free energy [kcal/mol]
GGAGGCACGTGGGGCC	-0.18
GGGTGCACGTGCTAGA	-0.07
GTTAACACGTGTGATA	0.13
TTTAACACGTGGCTTA	0.18
TTGAGCACGTGGCATT	-0.21
TTCATCACGTGATGGT	0.25
TTATTCACGTGAGGAG	0.29
TGACTCACGTGGGGAT	0.03
ACAAGCACGTGGGGGT	-0.22
GGTTGCACGTGACGCT	0.14
AGAGGCACGTGGGTGA	-0.22
GTTTTCACGTGTAATC	0.22
TAAGGCACGTGGTTGT	-0.13
TTGAGCACGTGAGTAA	0.19
GGTGGCACGTGTCCTT	0.1
TATTACACGTGAATAG	0.43
ATGCACACGTGTGGGG	0.09
GTGTACACGTGGTGGC	0.15
GTCAGCACGTGATATG	0.13
AGTTGCACGTGTAGCA	0.04
GTGCGCACGTGGGCAT	-0.04
TTGTGCACGTGAACTA	0.23
CGAGGCACGTGCGGGA	-0.15
ATGAACACGTGGGGAT	-0.2
TAGATCACGTGAATGT	0.29
ATGGTCACGTGTCATG	0.13

Sequence	relative binding free energy [kcal/mol]
GGTCGCACGTGTTCGG	-0.01
TTGGCCACGTGGTCGG	-0.13
TGTTGCACGTGCTGTT	-0.03
TTTGACACGTGGCTTA	-0.1
AGTGTCACGTGATTAA	0.15
AACTTCACGTGTGGAG	0.35
GTGTTCACGTGCGGAA	0.1
CAAGGCACGTGGGGGC	-0.34
TGTTTCACGTGATCTG	0.3
TCGAGCACGTGTAGTT	-0.02
GATGCCACGTGTTGAG	0.04
GGGGACACGTGCTATG	0.12
GGTCGCACGTGTTTGA	0.16
CGGTTCACGTGAGTTT	0.56
TGTCTCACGTGGGCAG	0.14
GGGTGCACGTGAATCG	0.16
ATGGACACGTGGTGAT	0.02
GAGCCCACGTGGGGGG	-0.24
CTGGACACGTGATGTT	0.29
GGCTGCACGTGTTTAT	0.04
GAAAGCACGTGCAGGT	0.05
AGGGTCACGTGGAATG	0.17
CTAGACACGTGGAGTT	0.08
TGTGTCACGTGTAGAG	0.04
GGGGGCACGTGCATTT	0.01
ATTTTCACGTGATTGT	0.33

Sequence	relative binding free energy [kcal/mol]
AAATCCACGTGTTGGT	0.08
CCTAGCACGTGGGGGT	-0.22
TGTGTCACGTGGATAG	0.12
CTAGTCACGTGAAGTT	0.31
GAGTGCACGTGTGAAA	0.25
TTTAACACGTGTTCTG	-0.02
GCAGTCACGTGAGTGT	0.2
TATGGCACGTGCGGTA	-0.17
TATCGCACGTGTGGGA	0.08
TGTGTCACGTGAATTT	0.3
AAAGTCACGTGTTTGA	0
AATGGCACGTGATGTA	-0.02
TGGTTCACGTGTTGGA	0.38
GGGATCACGTGGAAGG	0.13
TGAAACACGTGTAATG	0.16
GTCAGCACGTGGGGTA	-0.33
GGACTCACGTGGTAGG	0.19
AAGGGCACGTGATGAT	-0.05
AGAGGCACGTGGAATT	-0.03
ATATGCACGTGTGACT	0.05
TACAACACGTGGGGGT	-0.09
CTCAGCACGTGAGGGG	0.01
TTGTTCACGTGGGGTT	0.16
TGGGACACGTGAGTAA	0.12
GCATGCACGTGATTTG	0.24
TTCTTCACGTGTGGTG	0.29

Sequence	relative binding free energy [kcal/mol]
ATTGCCACGTGTCGGT	-0.02
GATTTCACGTGAGATA	0.41
CGCTTCACGTGGGGGC	0.06
TGTAGCACGTGGGGGC	-0.12
GATTACACGTGTTAGT	0.15
CCTGGCACGTGGTAGT	-0.17
AGAATCACGTGTTGTA	0.06
TACTTCACGTGTGGGT	0.27
TTTTGCACGTGGAGAG	0.04
AATTGCACGTGTTGAT	0.16
GCTTACACGTGAGGTG	0.43
GATTTCACGTGAGGCG	0.6
GTTCACACGTGGGGTG	-0.01
GTGAACACGTGGAAGG	0.04
ATCAGCACGTGGGGCG	-0.14
AGTTTCACGTGGTACT	0.15
TTGTTCACGTGAGTCG	0.18
GTTGCCACGTGGGTTG	-0.11
TCTTGCACGTGTGAAT	0.13
GTTTTCACGTGGGGCC	0.27
TGCATCACGTGTATAG	0.27
GTGGTCACGTGTGATG	0.2
AGCATCACGTGCGTGG	0.08
TTGGTCACGTGTAGAA	0.18
AGGGCCACGTGGTTTG	-0.09
GTATTCACGTGAGGTT	0.41

Sequence	relative binding free energy [kcal/mol]
TAGGGCACGTGTTGTG	-0.09
TGGTACACGTGATGTA	0.13
TTTCTCACGTGGGAGA	0.27
ATAGTCACGTGGCTTA	0.03
TAGTCCACGTGGTGGC	0
CGTAACACGTGTGGCG	0.07
GTTCGCACGTGGTGAA	0.06
CTTTTCACGTGTATCG	0.3
AAGGGCACGTGAGCAG	0.08
CGTGTCACGTGTGCGT	0.09
CCGGTCACGTGTTTGG	0.02
TGTATCACGTGTCAGA	0.1
GAATTCACGTGGCGGG	0.33
GGTATCACGTGCAAGT	0.16
TTACGCACGTGTTATA	-0.02
GAGTGCACGTGCGGGC	-0.06
GGCTTCACGTGAGTTG	0.39
GGGGTCACGTGGCTTC	0.09
TTAAGCACGTGGATTA	0.03
TTTGCCACGTGGAGCG	-0.06
TTGGTCACGTGTATTA	0.2
GTATTCACGTGTTGGA	0.4
TCAAGCACGTGGGTTT	-0.34
TTGGGCACGTGTACAA	0.01
TGGAGCACGTGGAGGA	-0.07
TATTCCACGTGTTGGG	0.18

Sequence	relative binding free energy [kcal/mol]
TTATTCACGTGATTAA	0.09
ATTGTCACGTGGGAAT	0.12
TGCTACACGTGATGGG	0.05
GTGTACACGTGTCTGT	0.02
GAGTACACGTGGAGGT	0.17
GACGTCACGTGGGTGT	0.07
TTGTACACGTGTTCTA	-0.01
TTGTTCACGTGATCGA	0.38
TTCTGCACGTGGTAAG	-0.03
GTTATCACGTGGGCCG	0.06
TTAAACACGTGAGGCT	0.29
TGATTCACGTGTTCTG	0.2
TGGGGCACGTGGCTCT	-0.14
GAATTCACGTGCGTTT	0.25
ACTAGCACGTGGGGGA	-0.16
TATTACACGTGTCGGG	0.17
ATGTTCACGTGATTAG	0.37
AAATGCACGTGGGTCG	-0.18
TGAGACACGTGAAGTA	0.25
CTATGCACGTGTGTGA	0
TGACTCACGTGGGAGT	-0.07
CGGTGCACGTGGTAGT	-0.05
CGAGTCACGTGGGTGT	-0.04
TAGAGCACGTGCGGTT	-0.01
AATGTCACGTGTGTTG	0.14
TGCGTCACGTGTTGTC	0.08

Sequence	relative binding free energy [kcal/mol]
TGTATCACGTGGTGAG	-0.02
GTTGGCACGTGCAGTG	0.04
AAAACCACGTGGTGGG	-0.02
GCTAGCACGTGGAGGA	0.02
TAATACACGTGGATTT	0
ATTATCACGTGATTGG	0.34
GAGTGCACGTGTGTAA	0.03
GTTTACACGTGAGTTC	0.35
GGTCTCACGTGTGCAG	0.34
TACCGCACGTGTGGTG	-0.1
GTCTACACGTGTGGTT	0.21
TACGTCACGTGAGGGT	0.18
TTGGGCACGTGGCACA	-0.07
TAGCGCACGTGTGTTA	-0.07
TATAGCACGTGCGTTG	-0.19
TTGTTCACGTGTCGGA	0.31
TGTAACACGTGTGTGC	-0.19
GTCGTCACGTGAGGTA	0.31
AGAGTCACGTGGCGTC	0.02
TTGGACACGTGACGTT	0.19
AGGCCCACGTGATGTG	0.18
GAGACCACGTGGTGGG	-0.04
